# Results reported in article PMC6212790.
# The list shows a part of the results. At the low end of the ranking the order means little.
# Target: T1, GST-Rok-C97-191 (UniProt O34857)
# T1 sequence: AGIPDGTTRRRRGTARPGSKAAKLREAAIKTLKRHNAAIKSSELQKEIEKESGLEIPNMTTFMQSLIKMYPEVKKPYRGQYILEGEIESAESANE
# Experiment: protein binding microarray;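 note: rank score from −0.5 (least bound) to 0.5 (best bound)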
# Conditions: Rok is a gene silencer of Bacillus subtilis; high values mean tight binding; most listed sequences are background and not binding sites; double strand, one strand shown
row,Sequence,binding signal
1,AGGCCCGA,-0.232 E-score
2,AAAGCCAC,-0.148 E-score
3,CACCCGGG,-0.272 E-score
4,CCCACGTA,-0.037 E-score
5,GCGCAACC,-0.0602 E-score
6,CCGACTAC,-0.213 E-score
7,AGTACTCG,0.0953 E-score
8,AACTTTCT,0.166 E-score
9,GGCAGACC,-0.296 E-score
10,AGACTTTC,-0.0852 E-score
11,CGTCTCGC,-0.192 E-score
12,TCGATGCA,0.0428 E-score
13,CGAATTGA,-0.0573 E-score
14,ATGCCGGG,-0.0342 E-score
15,CTCACCAA,0.00848 E-score
16,ACTGTCTC,-0.108 E-score
17,TACGTCGA,0.125 E-score
18,CACATCAA,0.0141 E-score
19,AGCTAAGG,-0.143 E-score
20,GTTCTCAA,0.064 E-score
21,ACGTGGGA,-0.0432 E-score
22,GAATCCGA,-0.0545 E-score
23,AACAGATC,-0.115 E-score
24,ATGTTATA,0.281 E-score
25,ATAATGGG,0.106 E-score

row,Sequence,binding signal
1,AGGTCACT,-0.0299 E-score
2,TACCACTA,0.263 E-score
3,ATAGAAAT,0.381 E-score
4,CGAGTCTC,-0.219 E-score
5,ACCACGGA,-0.033 E-score
6,ACCGCTAA,0.13 E-score
7,GAGCATAA,0.129 E-score
8,GTTACTCA,0.0639 E-score
9,GGATATCC,-0.17 E-score
10,CTAACTCC,-0.00723 E-score
11,AGAACAAA,-0.0217 E-score
12,CAGGTGTA,0.0479 E-score
13,AAGTTGTA,0.199 E-score
14,AGAACTGG,-0.0864 E-score
15,CGGATCAG,-0.032 E-score
16,CGATGTAG,0.176 E-score
17,ACCCATGG,-0.065 E-score
18,CCCACGCG,0.0254 E-score
19,GCATCATA,0.171 E-score
20,ACGAACGT,-0.196 E-score
21,GCGATGAA,-0.0177 E-score
22,ATCCATAC,0.00279 E-score
23,ATGAAGCG,-0.113 E-score
24,CATTTTAG,0.164 E-score
25,GTCTGGCA,-0.154 E-score

row,Sequence,binding signal
1,ATTGGTCC,-0.221 E-score
2,TCGAAAAA,-0.0734 E-score
3,ATCCCAAG,-0.118 E-score
4,CAGTAGCA,0.163 E-score
5,AATACACC,0.105 E-score
6,AATGGCCG,-0.1 E-score
7,ATATTGGA,0.116 E-score
8,GAATACCA,0.0312 E-score
9,AGGGTTAG,-0.232 E-score
10,AAGAGACT,0.0451 E-score
11,ATCATTGC,0.096 E-score
12,AACTGTTC,-0.0552 E-score
13,TACTCGAA,0.156 E-score
14,TCGGACCA,-0.135 E-score
15,GGAAGATA,0.182 E-score
16,ACTACCTA,0.308 E-score
17,AGAGTCCA,-0.0763 E-score
18,AACTGCCA,-0.275 E-score
19,TATAGGGA,0.0451 E-score
20,ATCTACTC,0.206 E-score
21,ACTAGCAC,0.0173 E-score
22,CGCTGACA,-0.0139 E-score
23,ATTCACAA,0.135 E-score
24,ATCCAGAA,0.0754 E-score
25,ATAACTGC,0.128 E-score

row,Sequence,binding signal
1,AAAAAGAT,0.131 E-score
2,AATGCCTG,0.0203 E-score
3,CACTGAGG,-0.173 E-score
4,TACGCCCA,-0.0847 E-score
5,ATGGTAGC,0.35 E-score
6,CGCTGCAC,-0.24 E-score
7,AGGCGGAC,-0.278 E-score
8,AAACTTAC,0.274 E-score
9,CTGAGAGC,-0.268 E-score
10,ACGCCTAA,-0.184 E-score
11,TAAAGGCA,-0.0495 E-score
12,TAAGTGCA,0.0583 E-score
13,ACATGTCT,-0.129 E-score
14,ATACTCCG,0.124 E-score
15,CAACGTGA,-0.0575 E-score
16,CCGGAGTC,-0.211 E-score
17,ATGACAGC,-0.0772 E-score
18,ACTAAGTG,0.05 E-score
19,CGGTGACC,-0.242 E-score
20,ACGGTTCA,-0.0205 E-score
21,CCTCGAGC,-0.0582 E-score
22,ACGCCTTA,0.073 E-score
23,CCCGGCCG,-0.206 E-score
24,ATGTGCCG,0.0314 E-score
25,GGCGAAAC,-0.154 E-score

row,Sequence,binding signal
1,GGGCTACC,-0.272 E-score
2,ACCTGCGC,-0.103 E-score
3,CTGTCTTC,-0.115 E-score
4,AGTCCAAC,-0.123 E-score
5,TACACGTA,0.0591 E-score
6,ATACTGCA,0.287 E-score
7,GCCATATA,0.0533 E-score
8,ATACACAG,0.211 E-score
9,AGAGGAGG,-0.227 E-score
10,AAAATCAG,0.0662 E-score
11,GGTACCCA,-0.204 E-score
12,AAAGAATA,0.135 E-score
13,TACCCTGA,-0.162 E-score
14,AATACAAT,0.259 E-score
15,CGGTCGTA,0.261 E-score
16,CGACTCAA,-0.0209 E-score
17,ATGCTTTG,-0.0485 E-score
18,GGCATACC,0.00482 E-score
19,CATGACTC,0.0199 E-score
20,GGATTAAC,-0.0794 E-score
21,ATTCGGAG,0.177 E-score
22,CAATATGC,0.0338 E-score
23,CATCGCGC,-0.104 E-score
24,ATCCGCAC,-0.158 E-score
25,AAATTAAG,0.244 E-score

row,Sequence,binding signal
1,GTGGCGAA,-0.104 E-score
2,TACTGCGA,-0.0669 E-score
3,TTATGCAA,0.0744 E-score
4,CGCGGTAC,-0.0926 E-score
5,TGAGAAAA,0.154 E-score
6,AAGAAAGC,0.0446 E-score
7,GATATCAC,0.102 E-score
8,CCTTCGTC,-0.258 E-score
9,CGAGATCG,0.00764 E-score
10,ACGGGGAC,-0.292 E-score
11,AGCTGCAC,-0.0784 E-score
12,GCTATAAC,0.0846 E-score
13,GAGGTAAC,0.0147 E-score
14,CGACAGAA,-0.0126 E-score
15,TCCGGAAA,-0.188 E-score
16,AACCCCTA,-0.0905 E-score
17,CTACAGAC,0.11 E-score
18,TGAGTAAA,0.0735 E-score
19,CTCTTCTC,-0.191 E-score
20,ATTTCATG,0.0719 E-score
21,CTTTGGGC,-0.314 E-score
22,GCATCGAA,0.0226 E-score
23,GATTACTA,0.354 E-score
24,ACAGGGCC,-0.268 E-score
25,AAGATGAA,-0.000246 E-score

row,Sequence,binding signal
1,AGAGAGAG,-0.164 E-score
2,CCGTCCAC,-0.0522 E-score
3,ATGACCAG,-0.103 E-score
4,GTATTCCA,0.0684 E-score
5,CGAATATA,0.245 E-score
6,CCCGATAA,0.12 E-score
7,GATGAGGA,-0.207 E-score
8,ATAGGCTC,-0.202 E-score
9,AACCTCAA,-0.0809 E-score
10,ACAGAGTC,-0.142 E-score
11,ACCGGACA,-0.0656 E-score
12,GAAGCCCC,-0.224 E-score
13,GCTGCAGC,-0.158 E-score
14,ACCTGGGG,-0.392 E-score
15,CTTGTTAC,0.0583 E-score
16,ACCCTTTA,0.000281 E-score
17,CCCGGACA,-0.0586 E-score
18,AAGGTGTC,-0.264 E-score
19,CCGGGGGA,-0.0847 E-score
20,ATGATGGG,-0.0998 E-score
21,AGAACAGC,0.0208 E-score
22,AATAGGGG,-0.179 E-score
